Values marked as one replicate rest on one cluster of the flow cell; about a third of the high ones do not repeat.
What follows are sequences tested on ATP (assay: switch fluorescence ratio, 500 uM ATP over buffer (Cy3 cluster intensity, sum of 5 cycles each) (fold (ratio)); higher = stronger signal-on switching upon ATP binding; sequences stand for … in TCGTCGGCAGCGTCAGATGTGTATAAGAGACAGTTTTTTTTTTTTTTTTTTTTTTTTT…TC). Conditions: aptamer strand: ATP DNA aptamer (quencher-CACCTGGGGGAGTATTGCGGAGGAAGG + anchor), 100 nM annealed; ATP concentration: 500 uM; one replicate.
In short: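 Cy3-labelled switching-strand clusters on a modified Illumina MiSeq flow-cell were annealed to 100 nM quencher-labelled ATP aptamer, imaged in selection buffer, then imaged after 15 min with 500 uM ATP at 22 °C. Five buffer/ATP cycles ran, with NaOH stripping and re-annealing between them. The fluorescence ratio is summed target-cycle over summed buffer-cycle Cy3 intensity per cluster, averaged per switch-domain sequence. Clusters outside 100-1000 RFU were excluded.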
For TCGAGCTGGG, the switch fluorescence ratio was 0.992.
TCGAGGATGA showed a switch fluorescence ratio of 0.954.
Work on TCGAGTACAG yielded a switch fluorescence ratio of 0.993.
For TCGATAAAAC, the switch fluorescence ratio was 1.04.
In the case of TCGATACTAT, the switch fluorescence ratio is reported as 1.01.
In the case of TCGATATAGA, the switch fluorescence ratio is reported as 0.939.
Work on TCGATCGTCT yielded a switch fluorescence ratio of 1.08.
With TCGATGGATC the switch fluorescence ratio was 1.01.
TCGATGTCCA gave a switch fluorescence ratio of 0.985.
With TCGATTGGG the switch fluorescence ratio was 1.01.
Sequence TCGATTTCTC has a switch fluorescence ratio of 0.965.
Sequence TCGCAATTTT has a switch fluorescence ratio of 4.03.
Sequence TCGCACTTTT has a switch fluorescence ratio of 1.05.
Work on TCGCAGCCGG yielded a switch fluorescence ratio of 1.01.
In the case of TCGCAGCTGA, the switch fluorescence ratio is reported as 1.73.
Sequence TCGCAGGTAA has a switch fluorescence ratio of 1.13.
TCGCAGGTTT showed a switch fluorescence ratio of 1.09.
In the case of TCGCATACAT, the switch fluorescence ratio is reported as 1.33.
TCGCATGAAC showed a switch fluorescence ratio of 2.8.
TCGCCAAACC gave a switch fluorescence ratio of 1.2.
In the case of TCGCCAATTC, the switch fluorescence ratio is reported as 3.46.
TCGCCAGTAT showed a switch fluorescence ratio of 0.972.
With TCGCCATTGA the switch fluorescence ratio was 0.969.
TCGCCCAGAG showed a switch fluorescence ratio of 1.82.
TCGCCCGATA showed a switch fluorescence ratio of 1.03.
TCGCCGGTTT gave a switch fluorescence ratio of 1.03.
Work on TCGCCTAAG yielded a switch fluorescence ratio of 1.02.
TCGCCTAGCC was tested, and the switch fluorescence ratio was 1.06.
Sequence TCGCCTCCAG has a switch fluorescence ratio of 1.28.
For TCGCGATGTA, the switch fluorescence ratio was 1.02.
With TCGCGATTGT the switch fluorescence ratio was 1.05.
Work on TCGCGCACCC yielded a switch fluorescence ratio of 1.27.
TCGCGCATTT gave a switch fluorescence ratio of 1.08.
TCGCGTACAT gave a switch fluorescence ratio of 2.79.
In the case of TCGCGTCGGG, the switch fluorescence ratio is reported as 0.991.
Work on TCGCGTGCGT yielded a switch fluorescence ratio of 1.08.
In the case of TCGCTAAAGA, the switch fluorescence ratio is reported as 1.03.
In the case of TCGCTACATT, the switch fluorescence ratio is reported as 0.991.
For TCGCTATGGA, the switch fluorescence ratio was 1.
TCGCTCCATA gave a switch fluorescence ratio of 1.03.
In the case of TCGCTCCCTT, the switch fluorescence ratio is reported as 1.32.
For TCGCTGATGG, the switch fluorescence ratio was 1.03.
In the case of TCGCTGCCCA, the switch fluorescence ratio is reported as 0.993.
TCGCTGGTGT was tested, and the switch fluorescence ratio was 1.05.
In the case of TCGCTGTGGA, the switch fluorescence ratio is reported as 1.04.
TCGCTTAGTC gave a switch fluorescence ratio of 1.14.
TCGCTTGAAC showed a switch fluorescence ratio of 2.12.
For TCGCTTTCCT, the switch fluorescence ratio was 1.1.
TCGCTTTTCC showed a switch fluorescence ratio of 1.09.
TCGGAACGAC showed a switch fluorescence ratio of 1.08.
TCGGAAGAGG was tested, and the switch fluorescence ratio was 0.99.
With TCGGACGCGT the switch fluorescence ratio was 1.01.
For TCGGACTTGA, the switch fluorescence ratio was 0.932.
TCGGAGATAA gave a switch fluorescence ratio of 1.03.
Sequence TCGGAGCCCC has a switch fluorescence ratio of 4.7.
Sequence TCGGAGCTCC has a switch fluorescence ratio of 1.08.
TCGGAGGCAG gave a switch fluorescence ratio of 1.01.
For TCGGAGGCAT, the switch fluorescence ratio was 1.38.
TCGGAGTATT was tested, and the switch fluorescence ratio was 1.15.
In the case of TCGGATGG, the switch fluorescence ratio is reported as 1.01.
Work on TCGGCAGTC yielded a switch fluorescence ratio of 1.07.
Sequence TCGGCCAGC has a switch fluorescence ratio of 1.06.
For TCGGCCGCCG, the switch fluorescence ratio was 1.02.
Work on TCGGCCTAAG yielded a switch fluorescence ratio of 1.01.
TCGGCCTATA showed a switch fluorescence ratio of 1.05.
TCGGCGGCTT gave a switch fluorescence ratio of 1.
TCGGCGTAGT showed a switch fluorescence ratio of 0.953.
For TCGGCTATAA, the switch fluorescence ratio was 1.53.
TCGGCTATCG showed a switch fluorescence ratio of 1.01.
TCGGCTATTA gave a switch fluorescence ratio of 1.06.
For TCGGCTTAGA, the switch fluorescence ratio was 1.03.
For TCGGGAATAT, the switch fluorescence ratio was 1.02.
TCGGGACACA was tested, and the switch fluorescence ratio was 1.06.
Work on TCGGGAGCGG yielded a switch fluorescence ratio of 0.996.
TCGGGCTCTA showed a switch fluorescence ratio of 1.03.
Sequence TCGGGGAAT has a switch fluorescence ratio of 0.994.
With TCGGGGACCC the switch fluorescence ratio was 1.
TCGGGGCACC gave a switch fluorescence ratio of 1.05.
In the case of TCGGGGTCTC, the switch fluorescence ratio is reported as 1.06.
TCGGGTCTAA showed a switch fluorescence ratio of 0.99.
TCGGGTCTGG was tested, and the switch fluorescence ratio was 0.992.
With TCGGGTGTG the switch fluorescence ratio was 1.01.
TCGGGTTTAC showed a switch fluorescence ratio of 1.4.
In the case of TCGGTAAAG, the switch fluorescence ratio is reported as 0.951.
TCGGTATCG showed a switch fluorescence ratio of 0.98.

From the supplement of paper PMC10126150
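Note: ATP exposure 15 min at 22 °C before imaging.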
